# Whole data set: some 33,000 sequences, median “E-score (-0.5 to 0.5)” near -0.021, cut for the highest 2% near 0.32. The list shows a part of the results.
# Target: T1, Zap1 (UniProt P47043)
# T1 sequence: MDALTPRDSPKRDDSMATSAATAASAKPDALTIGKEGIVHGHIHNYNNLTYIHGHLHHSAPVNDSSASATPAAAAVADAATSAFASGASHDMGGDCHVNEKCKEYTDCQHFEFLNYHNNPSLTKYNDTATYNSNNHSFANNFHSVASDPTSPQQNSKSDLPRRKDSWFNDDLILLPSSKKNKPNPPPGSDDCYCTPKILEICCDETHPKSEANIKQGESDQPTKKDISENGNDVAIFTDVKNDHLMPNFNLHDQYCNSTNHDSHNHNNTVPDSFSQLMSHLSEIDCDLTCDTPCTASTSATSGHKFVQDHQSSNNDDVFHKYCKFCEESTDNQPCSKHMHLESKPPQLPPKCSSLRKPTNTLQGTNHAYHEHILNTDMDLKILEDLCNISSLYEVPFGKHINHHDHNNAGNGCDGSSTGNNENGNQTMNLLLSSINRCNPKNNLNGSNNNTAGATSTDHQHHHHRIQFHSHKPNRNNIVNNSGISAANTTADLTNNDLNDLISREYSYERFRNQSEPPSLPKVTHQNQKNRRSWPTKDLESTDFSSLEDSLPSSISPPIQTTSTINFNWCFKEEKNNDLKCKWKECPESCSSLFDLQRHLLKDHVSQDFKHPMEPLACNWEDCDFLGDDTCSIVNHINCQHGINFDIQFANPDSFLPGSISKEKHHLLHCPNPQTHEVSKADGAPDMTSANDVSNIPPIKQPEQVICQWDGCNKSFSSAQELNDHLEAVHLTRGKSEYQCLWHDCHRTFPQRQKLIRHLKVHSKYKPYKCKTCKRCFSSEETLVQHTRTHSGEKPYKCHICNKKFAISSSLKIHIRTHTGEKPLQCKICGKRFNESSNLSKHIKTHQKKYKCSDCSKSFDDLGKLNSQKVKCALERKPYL
# Assay: PBM E-score (8-mer binding enrichment) (E-score (-0.5 to 0.5)); higher = stronger / more preferred TF binding; most listed sequences are background and not binding sites
# Details: protein concentration: 200 nM; construct: GST-full length
# Method: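 Universal 'all 10-mer' protein binding microarrays (Agilent AMADID 015681) probed with GST-tagged S. cerevisiae TFs (full-length or DBD) made by in vitro transcription/translation (PURExpress), about 100-200 nM. Bound TF was detected with fluorescent anti-GST. Each ungapped 8-mer (which stands for itself and its reverse complement) is scored by the PBM enrichment score (E-score), a modified Wilcoxon-Mann-Whitney statistic from -0.5 to +0.5, computed with the Universal PBM Analysis Suite. Scale: above 0.35 generally sequence-specific binding.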
row,Sequence,PBM E-score
1,CAATTTTC,0.0199
2,AGATCCTC,-0.204
3,CTATCGTA,-0.034
4,ACCATGAG,0.0798
5,AGGGGGCA,-0.366
6,AAGAAACT,0.0227
7,CGATCCCA,-0.0142
8,ATCTGTTA,0.211
9,CAAAATGA,0.129
10,GTGGTATA,0.195
11,ATTATGGC,-0.0578
12,AACATAAT,0.142
13,CCTTATCC,-0.307
14,ACGAGCAA,-0.303
15,CCCCCTGA,-0.209
16,ACCACTGG,0.128
17,CGCCGAAG,-0.221
18,ACTGCAAT,0.0724
19,GCCCAGGC,-0.23
20,GACGCGCC,-0.209
21,ACTCGCGA,0.0942
22,AGCAGCAG,-0.0599
23,CGACCACA,0.0128
24,ACAATTCC,-0.163

row,Sequence,PBM E-score
1,ACAACGAA,0.0201
2,ATGCGCCC,-0.121
3,AGCTGGAG,-0.258
4,ATCGTTTA,0.141
5,CGTTGGGA,-0.079
6,TGAATAAA,0.0291
7,GACAGTAA,0.0265
8,ATGAAGGG,0.0618
9,GCCAGACC,-0.118
10,CTACGGAG,-0.123
11,AGGGCTTG,0.0277
12,CAAGCTAC,-0.114
13,CGGGATAG,-0.0853
14,CACCAATC,0.0403
15,CTGGCAGA,-0.11
16,ACGAGTCT,-0.225
17,CTACGTCA,-0.247
18,CACGTTAG,-0.177
19,GTCAACTA,0.084
20,ACAGCGGT,0.0759
21,GGCGTTAA,-0.0301
22,ATCACGGA,0.136
23,CCGTGTCG,-0.203
24,ACAGAGCC,-0.0572

row,Sequence,PBM E-score
1,ACTCGATA,0.0748
2,CATCGAAA,-0.0523
3,AATGTCGG,-0.192
4,CCCCTATA,-0.102
5,AATACGCG,-0.113
6,TATCATCA,0.0226
7,CATGTCAA,-0.192
8,AGTTAACT,0.00939
9,ATATTGGG,0.0156
10,CCAAAGCG,-0.0968
11,GAATCAGC,-0.277
12,AATGACCC,0.3
13,AGAGCGCG,-0.122
14,ACAGGGTG,0.199
15,CCCTATTA,0.101
16,ATCTCAAC,0.158
17,CAGGCCAA,-0.168
18,AAGTCCCT,-0.12
19,TCCCCTCA,0.016
20,GGAGAAGA,-0.247
21,CTTTGCTA,0.0179
22,CGCCGTAA,0.0717
23,GCGTTTAC,-0.311
24,AAACTCGA,-0.0479

row,Sequence,PBM E-score
1,CTGCTCGA,-0.128
2,TAGCCCCA,0.06
3,ACCATATG,0.174
4,AGGTCCAG,0.0253
5,CGCGTGCC,-0.172
6,CAGAAGAC,0.0367
7,GTGAGGCA,-0.185
8,CTAAGGAA,0.0278
9,CCCCCTCC,-0.196
10,ACACATGG,0.0436
11,ATGTGCCC,-0.181
12,CCTGAGTC,0.0002
13,GAGAACGC,-0.0996
14,CTCGCCAA,-0.203
15,GCTTAAAC,-0.0479
16,CCGCATAG,0.0947
17,ATTTGGTG,0.124
18,ATCACCGG,-0.0544
19,ATTCCGTA,-0.074
20,ACCATGTA,0.147
21,CATTACTC,0.00053
22,AGGAGCAG,-0.24
